{
  "source": "patent US20230279089A1",
  "about": "(GlaxoSmithKline, published 2023)",
  "experiment_in_all_cases": "cell-based or functional assay",
  "key": {"Human TLL2": {"biological_target": "T1, Human TLL2 (human, UniProt Q9Y6L7 150-1015, limits assumed)", "T1 sequence (looked up)": "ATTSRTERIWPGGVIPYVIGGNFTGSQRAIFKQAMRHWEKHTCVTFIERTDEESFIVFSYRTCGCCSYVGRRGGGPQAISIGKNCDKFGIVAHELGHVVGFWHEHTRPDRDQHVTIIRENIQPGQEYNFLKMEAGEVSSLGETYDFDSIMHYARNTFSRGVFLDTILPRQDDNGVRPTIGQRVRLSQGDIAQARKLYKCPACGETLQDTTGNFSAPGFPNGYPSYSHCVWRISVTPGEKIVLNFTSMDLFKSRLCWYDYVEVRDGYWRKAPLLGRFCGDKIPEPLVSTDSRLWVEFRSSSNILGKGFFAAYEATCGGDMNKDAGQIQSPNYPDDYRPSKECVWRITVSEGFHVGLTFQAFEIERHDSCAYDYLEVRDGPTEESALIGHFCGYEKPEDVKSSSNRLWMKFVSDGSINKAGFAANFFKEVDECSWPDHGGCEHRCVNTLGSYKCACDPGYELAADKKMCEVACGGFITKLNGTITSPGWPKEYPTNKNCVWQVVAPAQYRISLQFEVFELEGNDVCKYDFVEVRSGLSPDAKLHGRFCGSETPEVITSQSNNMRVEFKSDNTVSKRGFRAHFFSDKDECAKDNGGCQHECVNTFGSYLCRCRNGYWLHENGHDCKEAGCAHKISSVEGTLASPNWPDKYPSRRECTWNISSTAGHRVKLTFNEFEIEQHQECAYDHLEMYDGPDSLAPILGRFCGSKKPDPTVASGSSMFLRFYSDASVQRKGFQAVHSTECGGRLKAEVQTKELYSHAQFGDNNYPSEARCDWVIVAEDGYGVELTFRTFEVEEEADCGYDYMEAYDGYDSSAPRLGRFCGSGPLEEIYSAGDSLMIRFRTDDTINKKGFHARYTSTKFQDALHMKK"}, "Mouse TLL1": {"biological_target": "T2, Mouse TLL1 (mouse, UniProt Q62381 148-1013, limits assumed)", "T2 sequence (looked up)": "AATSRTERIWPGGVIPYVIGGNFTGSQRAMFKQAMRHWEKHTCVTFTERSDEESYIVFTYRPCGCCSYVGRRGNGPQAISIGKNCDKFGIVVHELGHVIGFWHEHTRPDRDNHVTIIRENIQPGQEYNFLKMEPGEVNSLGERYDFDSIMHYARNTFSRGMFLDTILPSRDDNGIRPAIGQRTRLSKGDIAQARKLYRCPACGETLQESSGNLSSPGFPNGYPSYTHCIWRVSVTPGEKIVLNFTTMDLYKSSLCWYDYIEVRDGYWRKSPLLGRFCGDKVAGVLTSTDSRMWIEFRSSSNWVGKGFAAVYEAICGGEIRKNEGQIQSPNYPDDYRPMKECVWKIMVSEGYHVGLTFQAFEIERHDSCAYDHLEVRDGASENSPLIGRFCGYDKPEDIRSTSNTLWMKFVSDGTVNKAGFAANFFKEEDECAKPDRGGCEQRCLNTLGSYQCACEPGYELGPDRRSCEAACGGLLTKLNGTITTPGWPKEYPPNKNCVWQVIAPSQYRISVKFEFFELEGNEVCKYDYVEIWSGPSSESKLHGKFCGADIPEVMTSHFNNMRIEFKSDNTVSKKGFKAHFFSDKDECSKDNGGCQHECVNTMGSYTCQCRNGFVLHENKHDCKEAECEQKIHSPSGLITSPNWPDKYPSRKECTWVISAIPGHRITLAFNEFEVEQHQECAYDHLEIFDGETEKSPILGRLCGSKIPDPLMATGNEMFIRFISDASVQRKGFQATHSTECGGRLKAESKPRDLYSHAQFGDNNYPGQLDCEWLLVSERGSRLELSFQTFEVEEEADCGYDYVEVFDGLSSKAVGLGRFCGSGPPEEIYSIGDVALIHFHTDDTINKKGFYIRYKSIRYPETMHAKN"}, "Rat TLL1": {"biological_target": "T3, Rat TLL1 (rat, UniProt A0ABK0LNZ6 99-957)", "T3 sequence": "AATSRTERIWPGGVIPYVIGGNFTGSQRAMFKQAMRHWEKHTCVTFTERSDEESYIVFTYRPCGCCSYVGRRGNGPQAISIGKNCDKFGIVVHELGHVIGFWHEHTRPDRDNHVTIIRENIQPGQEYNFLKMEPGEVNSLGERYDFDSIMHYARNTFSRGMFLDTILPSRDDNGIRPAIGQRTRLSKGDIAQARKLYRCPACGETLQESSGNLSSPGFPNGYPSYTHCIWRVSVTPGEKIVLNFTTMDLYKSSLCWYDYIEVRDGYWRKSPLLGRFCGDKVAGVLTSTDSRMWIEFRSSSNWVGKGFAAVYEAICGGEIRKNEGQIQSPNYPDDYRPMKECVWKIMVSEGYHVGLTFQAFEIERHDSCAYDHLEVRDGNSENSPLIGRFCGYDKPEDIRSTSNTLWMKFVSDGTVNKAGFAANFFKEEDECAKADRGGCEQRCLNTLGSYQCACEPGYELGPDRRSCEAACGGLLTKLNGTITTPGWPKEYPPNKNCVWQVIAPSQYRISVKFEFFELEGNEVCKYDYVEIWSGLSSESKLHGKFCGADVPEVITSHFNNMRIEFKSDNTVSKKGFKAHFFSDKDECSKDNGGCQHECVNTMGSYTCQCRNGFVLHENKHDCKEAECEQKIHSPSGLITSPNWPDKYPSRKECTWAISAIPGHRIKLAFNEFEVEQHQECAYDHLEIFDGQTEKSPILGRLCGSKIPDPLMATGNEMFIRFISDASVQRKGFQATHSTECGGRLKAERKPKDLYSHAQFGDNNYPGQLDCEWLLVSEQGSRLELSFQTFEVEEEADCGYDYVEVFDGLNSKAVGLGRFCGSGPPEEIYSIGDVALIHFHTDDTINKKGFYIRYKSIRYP"}},
  "data": [
    {"binder": "13Y039-3E07-2944 (antibody, human IgG1, kappa, Fully human IgG1 LAGA, kappa; HEK expressed; also called HEK-expressed 13Y039-3E07-2944) heavy: QVQLQQWGAGLLKPSETLSLTCAVYGGSFFGDYWSWIRQPPGKGLEWIGEIDWSGATNYNPSLKSRVTISVDTSKNQFSLKLSSVTAADTAVYYCARGGSKELSFDIWGQGTMVTVSS[gap - human IgG1 constant region with L235A G237A (EU numbers)] light: DIQMTQSPSSLSASVGDRVTITCQASQDIANYLNWYQQKPGKAPKLLIYDASNLETGVPSRFSGSGSGTDFTFTISSLQPEDIATYYCQQADTLPFTFGGGTKVEIKRTVAAPSVFIFPPSDEQLKSGTASVVCLLNNFYPREAKVQWKVDNALQSGNSQESVTEQDSKDSTYSLSSTLTLSKADYEKHKVYACEVTHQGLSSPVTKSFNRGEC", "values": [
      {"measurement": "IC50, FRET enzyme activity, 500 pM huTLL-2", "setting": "Human TLL2", "result": "≥ 398", "unit": "nM"},
      {"measurement": "IC50, FRET enzyme activity, 800 pM biotinylated mTLL-1", "setting": "Mouse TLL1", "result": 0.14, "unit": "nM"},
      {"measurement": "IC50 (read off the curve)", "setting": "Rat TLL1", "result": "~900", "unit": "pM"}
    ]}
  ]
}
